This is an account of results in the supplement of paper PMC3694890.

± gives the uncertainty stated by the source. This is one part of the list. Phosphotyrosine is written y.
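Further: phosphopeptide probes on the chip at 1–4 µM, lysate proteins bound in 20 mM Tris pH 7.0 buffer with 140 mM NaCl, 1% Triton X-100 and 5% glycerol.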

The first test addresses GRB2 (endogenous complexes from cell lysate), P62993. As to the kind of experiment: GRB2 complex binding differential signal (pY peptide minus Ala control peptide) (fluorescence intensity units); higher = stronger GRB2 complex binding. To be noted: MCF7.
In the case of yVLEGV [SHIP2_987/A1], the “GRB2 complex binding differential signal” value is 90 ± 560.

As to yENQDV [STAP2_322/A1], the “GRB2 complex binding differential signal” value amounted to 44400 ± 10000.

In the case of yLKTKF [STAT3_705/A1], the “GRB2 complex binding differential signal” value came out at 376 ± 250.

Consider yDYESR [SRC_93/A1], for which the “GRB2 complex binding differential signal” value stood at 282 ± 280.

As for yMGVGP [SHIP1_915/A1], the “GRB2 complex binding differential signal” value is 1970 ± 610.

Consider yDVPPP [BCAR1_362/A1], for which the “GRB2 complex binding differential signal” value was determined as 1960 ± 690.

Consider yEKVLG [STAP2_250/A1], for which the “GRB2 complex binding differential signal” value is 2050 ± 690.

As for yIKTEL [STAT1_701/A1], the “GRB2 complex binding differential signal” value stood at 754 ± 590.

As for yDQPPK [SHIP1_944/A1], the “GRB2 complex binding differential signal” value came out at 3290 ± 560.

For the molecule yDAPLG [SOCS3_221/A1], the “GRB2 complex binding differential signal” value is 2260 ± 420.

With yCLSVS [SRC_187/A1], the “GRB2 complex binding differential signal” value stood at 99.1 ± 170.

Regarding yAPAGP [SHIP2_1135/A1], the “GRB2 complex binding differential signal” value came to 3340 ± 1100.

As for yLKHRL [STAT2_690/A1], the “GRB2 complex binding differential signal” value came out at 91.3 ± 300.

For yQPGEN [SRC_530/A1], the “GRB2 complex binding differential signal” value was 1030 ± 520.

Consider yVPSVF [STAT4_693/A1], for which the “GRB2 complex binding differential signal” value was -1060 ± 730.

Turning to yVKPQI [STAT5A_694/A1], the “GRB2 complex binding differential signal” value came out at 17400 ± 3800.

Staying with this test, now noted: MCF10A.
yVLEGV [SHIP2_987/A1]: the “GRB2 complex binding differential signal” value was found to be 245 ± 210.

yENQDV [STAP2_322/A1]: the “GRB2 complex binding differential signal” value was determined as 8590 ± 3600.

Turning to yLKTKF [STAT3_705/A1], the “GRB2 complex binding differential signal” value is 125 ± 110.

In the case of yDYESR [SRC_93/A1], the “GRB2 complex binding differential signal” value was -115 ± 220.

Regarding yMGVGP [SHIP1_915/A1], the “GRB2 complex binding differential signal” value was 1400 ± 620.

With yDVPPP [BCAR1_362/A1], the “GRB2 complex binding differential signal” value is 1140 ± 260.

As to yEKVLG [STAP2_250/A1], the “GRB2 complex binding differential signal” value is 2730 ± 410.

yIKTEL [STAT1_701/A1]: the “GRB2 complex binding differential signal” value came to 1210 ± 250.

On to yDQPPK [SHIP1_944/A1], for which the “GRB2 complex binding differential signal” value amounted to 2150 ± 300.

As to yDAPLG [SOCS3_221/A1], the “GRB2 complex binding differential signal” value is 1430 ± 310.

Take yCLSVS [SRC_187/A1]: the “GRB2 complex binding differential signal” value was 45 ± 350.

In the case of yAPAGP [SHIP2_1135/A1], the “GRB2 complex binding differential signal” value was 3640 ± 1600.

With yLKHRL [STAT2_690/A1], the “GRB2 complex binding differential signal” value was 319 ± 270.

For the molecule yQPGEN [SRC_530/A1], the “GRB2 complex binding differential signal” value turned out to be 857 ± 730.

On to yVPSVF [STAT4_693/A1], for which the “GRB2 complex binding differential signal” value amounted to 203 ± 180.

For the molecule yVKPQI [STAT5A_694/A1], the “GRB2 complex binding differential signal” value amounted to 14300 ± 1500.

Staying with this test, now noted: MDA-MB-231.
On to yVLEGV [SHIP2_987/A1], for which the “GRB2 complex binding differential signal” value stood at 1190 ± 290.

As to yENQDV [STAP2_322/A1], the “GRB2 complex binding differential signal” value amounted to 20600 ± 1100.

On to yLKTKF [STAT3_705/A1], for which the “GRB2 complex binding differential signal” value is 571 ± 360.

Turning to yDYESR [SRC_93/A1], the “GRB2 complex binding differential signal” value stood at 402 ± 310.

For the molecule yMGVGP [SHIP1_915/A1], the “GRB2 complex binding differential signal” value amounted to 776 ± 340.

As for yDVPPP [BCAR1_362/A1], the “GRB2 complex binding differential signal” value turned out to be 1510 ± 550.

On to yEKVLG [STAP2_250/A1], for which the “GRB2 complex binding differential signal” value was found to be 1100 ± 520.

As for yIKTEL [STAT1_701/A1], the “GRB2 complex binding differential signal” value worked out at 693 ± 400.

Turning to yDQPPK [SHIP1_944/A1], the “GRB2 complex binding differential signal” value was 1230 ± 580.

Consider yDAPLG [SOCS3_221/A1], for which the “GRB2 complex binding differential signal” value amounted to 1860 ± 420.

For the molecule yCLSVS [SRC_187/A1], the “GRB2 complex binding differential signal” value stood at 620 ± 320.

Turning to yAPAGP [SHIP2_1135/A1], the “GRB2 complex binding differential signal” value was found to be 1350 ± 370.

Turning to yLKHRL [STAT2_690/A1], the “GRB2 complex binding differential signal” value amounted to 307 ± 270.

On to yQPGEN [SRC_530/A1], for which the “GRB2 complex binding differential signal” value was determined as 546 ± 610.

On to yVPSVF [STAT4_693/A1], for which the “GRB2 complex binding differential signal” value was 1050 ± 480.

As for yVKPQI [STAT5A_694/A1], the “GRB2 complex binding differential signal” value came to 3000 ± 660.

Still in this test, the particulars now being: T47D.
Regarding yVLEGV [SHIP2_987/A1], the “GRB2 complex binding differential signal” value came out at 1940 ± 1200.

Consider yENQDV [STAP2_322/A1], for which the “GRB2 complex binding differential signal” value came out at 16100 ± 9900.

Consider yLKTKF [STAT3_705/A1], for which the “GRB2 complex binding differential signal” value was determined as 954 ± 900.

As for yDYESR [SRC_93/A1], the “GRB2 complex binding differential signal” value turned out to be 517 ± 1000.

Turning to yMGVGP [SHIP1_915/A1], the “GRB2 complex binding differential signal” value came out at 905 ± 1100.

As to yDVPPP [BCAR1_362/A1], the “GRB2 complex binding differential signal” value came to 987 ± 1100.

As to yEKVLG [STAP2_250/A1], the “GRB2 complex binding differential signal” value is 1690 ± 980.

As to yIKTEL [STAT1_701/A1], the “GRB2 complex binding differential signal” value is 495 ± 1300.

With yDQPPK [SHIP1_944/A1], the “GRB2 complex binding differential signal” value turned out to be 1100 ± 1800.

On to yDAPLG [SOCS3_221/A1], for which the “GRB2 complex binding differential signal” value came out at 1870 ± 1100.

Consider yCLSVS [SRC_187/A1], for which the “GRB2 complex binding differential signal” value came out at 319 ± 980.

For yAPAGP [SHIP2_1135/A1], the “GRB2 complex binding differential signal” value turned out to be 1580 ± 910.

As for yLKHRL [STAT2_690/A1], the “GRB2 complex binding differential signal” value was 912 ± 990.

On to yQPGEN [SRC_530/A1], for which the “GRB2 complex binding differential signal” value stood at 394 ± 1100.

As for yVPSVF [STAT4_693/A1], the “GRB2 complex binding differential signal” value stood at 2350 ± 1400.

Consider yVKPQI [STAT5A_694/A1], for which the “GRB2 complex binding differential signal” value was determined as 3250 ± 1500.
